# Measured values as given in PubChem BioAssay (NCATS).
# The list shows a part of the results. The main result of the screen is listed elsewhere. These columns were measured beside it and carry no call. The list favours compounds with an active or inconclusive main result. The note in brackets gives the kind of curve behind each potency; many fits are weak.
# Experiment: qHTS Assay for Lipid Storage Modulators (AID 1519)
# Settings: Drosophila S3 cells, BODIPY lipid droplet/cell ratio, laser cytometry, cells loaded with oleic acid
# Summary of the method: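 Cells seeded at 5,000 per well were treated with compounds over a concentration series and loaded with oleic acid (400 uM, as added). Lipid droplet fluorescence (488 nm excitation, 500-530 nm channel) was read by laser-scanning cytometry and normalized to 20 uM Triacsin C.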
# [1] = measured here: cell count channel max response
# [2] = measured here: lipid (BODIPY) channel AC50
# [3] = measured here: lipid channel max response
# [4] = measured here: cell number channel AC50
# Tags give direction and shape of the fitted curve.
SMILES,max response [1],AC50 [2],max response [3],AC50 [4]
N#CCCn1c(=O)cnc2cnc(OCc3ccccc3)nc21,27.3%,"2.51 µM [rising, partial curve]",39.4%,
O=C(c1cnccn1)N1CCC2(CCCN(c3ccccn3)C2)CC1,25.1%,"1.78 µM [rising, full curve]",35.9%,
CCNc1ncc2nc(-c3cc(F)cc(F)c3)c(=O)n(CCc3ccccc3)c2n1,-12.1%,,-104%,"0.398 µM [rising, full curve, poor fit]"
COc1ccc(C(=O)N2CCC3(CCN(Cc4cc(C(F)(F)F)cc(C(F)(F)F)c4)CC3)CC2)cc1,17.6%,,17.8%,"5.01 µM [rising, partial curve]"
O=c1cnc2cnc(N3CCNCC3)nc2n1Cc1cccs1,25.9%,"0.00794 µM [rising, full curve, poor fit]",37.6%,
N[C@@H](CO)C(=O)O,26.3%,"39.8 µM [rising, single point]",33.3%,
COCCn1c(=O)c(-c2ccc(OC)cc2)nc2cnc(N3CCOCC3)nc21,9.13%,"1.78 µM [rising, partial curve]",9.48%,
CC(C)NC(=O)N1CC[C@@]2(CCCN(C(=O)c3ccco3)C2)C1,-27.9%,"2.82 µM [falling, full curve, poor fit]",-27.3%,
COc1ccc(C(=O)N2CCC3(CCCN(Cc4cc(C(F)(F)F)cc(C(F)(F)F)c4)C3)CC2)cc1,9.87%,"0.708 µM [rising, full curve, poor fit]",8.69%,
COCCn1c(=O)c(-c2cccc(C#N)c2)nc2cnc(Oc3ccc(OC)cc3)nc21,-24.9%,"12.6 µM [falling, single point]",-43%,
O=C(NC(CO)C(O)c1ccc([N+](=O)[O-])cc1)C(Cl)Cl (configuration not stated),28.2%,"0.126 µM [rising, full curve, poor fit]",53.8%,
C=C1c2c(Cl)ccc(O)c2C(O)=C2C(=O)[C@]3(O)C(O)=C(C(N)=O)C(=O)C(N(C)C)C3C(O)C12 (some centres not stated),17.9%,"39.8 µM [rising, single point]",31.6%,
NS(=O)(=O)c1cc2c(cc1Cl)N[C@@H]([C@@H]1C[C@@H]3C=C[C@H]1C3)NS2(=O)=O,21%,"15.8 µM [rising, partial curve, poor fit]",32%,
FC(F)(F)c1ccccc1-c1nccc(NCCN2CCOCC2)n1,29.8%,"10 µM [rising, partial curve]",38.1%,
COCC(=O)N1CCC2(CCCN(c3cccc(-c4ccccc4)c3)C2)CC1,11.8%,,-44.7%,"1.12 µM [rising, full curve, poor fit]"
COc1ccccc1CNc1ncnc2ccc(-c3ccc(C(=O)N(C)C)cc3)cc12,9.99%,"1.58 µM [rising, full curve]",7.75%,
CS(=O)(=O)N1CCC[C@@]2(CCN(c3ncccn3)C2)C1,24.1%,"15.8 µM [rising, partial curve]",35%,
COc1ccc2[nH]cc(CCNc3cc(-c4ccccc4CN(C)C)ncn3)c2c1,27.6%,"6.31 µM [rising, partial curve]",41.6%,
CCC(=O)N[C@@H]1CCc2cccc(OC)c2C1,58.6%,,77.1%,"14.1 µM [rising, partial curve]"
Cn1cc(-c2nc3cnc(Oc4cccc(Cl)c4)nc3n(C3CC3)c2=O)c2ccccc21,-2.82%,"0.0891 µM [falling, full curve, poor fit]",-6.99%,
CN1CCN(c2ncc3nc(-c4cn(C)c5ccccc45)c(=O)n(C[C@H]4CCCO4)c3n2)CC1,29.2%,"2.24 µM [rising, full curve, poor fit]",34.1%,
O=C(c1cnccn1)N1CCC2(CCCN(c3ccncc3)C2)CC1,27.1%,"20 µM [rising, single point]",34.3%,
COc1c2c(cc3occ(-c4ccc5c(c4)OCO5)c(=O)c13)OC(C)(C)C=C2,14.5%,"0.0631 µM [rising, full curve, poor fit]",-0.915%,
O=c1c(CCc2ccccc2)nc2cnc(Oc3ccccc3)nc2n1C[C@H]1CCCO1,13.8%,"0.1 µM [rising, full curve]",-0.512%,
CC(=O)N1CCC2(CC1)CCN(c1ccc(-c3ccccc3)cc1)CC2,-32.8%,,-37%,"39.8 µM [falling, single point]"
COc1ncc2nc(-c3cccs3)c(=O)n(Cc3cccs3)c2n1,24.2%,"2.82 µM [rising, full curve, poor fit]",28.4%,
COc1ccc(NS(=O)(=O)c2ccc(N)cc2)nn1,15.1%,"0.251 µM [rising, partial curve, poor fit]",32.3%,

SMILES,max response [1],AC50 [2],max response [3],AC50 [4]
CCn1cc(C(=O)O)c(=O)c2cc3c(cc21)OCO3,15.9%,"11.2 µM [rising, partial curve]",30%,
C[C@@](N)(Cc1ccc(O)c(O)c1)C(=O)O,27.1%,"25.1 µM [rising, single point]",45.4%,
O=C(O)c1nc2cc(Cl)c(Cl)cc2[nH]c1=O,19.5%,"0.316 µM [rising, full curve, poor fit]",33.4%,
CCC(C)(C)C(=O)O[C@@H]1C[C@@H](C)C=C2C=C[C@H](C)[C@H](CC[C@@H]3C[C@@H](O)CC(=O)O3)[C@H]21,39.3%,,42.8%,"31.6 µM [rising, single point]"
O=C(Nc1cccc(F)c1)N1CCCC2(CCN(C(=O)c3csnn3)CC2)C1,18.6%,"0.0282 µM [rising, full curve, poor fit]",31.7%,
c1cncc(CNc2ncncc2-c2ccoc2)c1,25.4%,"8.91 µM [rising, full curve, poor fit]",30.7%,
CCNc1ncc2nc(-c3cccs3)c(=O)n(-c3ccc(OC)cc3)c2n1,41.5%,,-8.87%,"0.0398 µM [rising, full curve, poor fit]"
O=C(c1cccc(F)c1)N1CCC2(CCCN(Cc3nccs3)C2)CC1,23.1%,"0.00794 µM [rising, full curve, poor fit]",29.5%,
COCCn1c(=O)c(CCc2ccccc2)nc2cncnc21,18.2%,"3.55 µM [rising, full curve, poor fit]",23.9%,
Cc1noc(C)c1C(=O)N1CCC2(CCN(Cc3nccs3)CC2)CC1,23.7%,"2 µM [rising, partial curve, poor fit]",34.5%,
COc1ccccc1CCn1c(=O)c(-c2ccc(F)cc2)nc2cncnc21,17%,"0.0112 µM [rising, full curve, poor fit]",24.2%,
COCCn1c(=O)c(-c2ccc(Cl)cc2)nc2cnc(N3CCOCC3)nc21,21.1%,"2.51 µM [rising, full curve, poor fit]",24.3%,
Nc1ccc(S(=O)(=O)Nc2ncccn2)cc1,15.2%,"0.0398 µM [rising, full curve, poor fit]",25.8%,
Fc1ccc(Nc2ccnc(-c3ccc4c(c3)OCO4)n2)cc1,15.9%,"1 µM [rising, full curve]",23.7%,
COC(=O)N1CCC2(CC1)CCN(c1ccccn1)CC2,24.5%,"5.01 µM [rising, partial curve]",37.9%,
CN(C)c1ncc2nc(-c3cc(F)cc(F)c3)c(=O)n(C)c2n1,29%,"6.31 µM [rising, full curve]",34%,
CC1CC2C3CC(F)C4=CC(=O)C=C[C@@]4(C)[C@@]3(F)C(O)C[C@]2(C)[C@]1(O)C(=O)COC(=O)C(C)(C)C (some centres not stated),-2.65%,"11.2 µM [falling, partial curve, poor fit]",-35%,
COc1ncc2nc(-c3cc(F)cc(F)c3)c(=O)n(Cc3cccs3)c2n1,22.6%,"2.51 µM [rising, partial curve]",14.1%,
COc1ncc2nc(-c3ccc(Cl)cc3)c(=O)n(C)c2n1,17.1%,"0.0631 µM [rising, full curve, poor fit]",24.4%,
CN(C)c1ncc2nc(-c3ccc(Cl)cc3)c(=O)n(-c3ccccc3)c2n1,24.7%,"2.82 µM [rising, full curve, poor fit]",32%,
COc1cccc(Nc2ncc3ncc(=O)n(C[C@H]4CCCO4)c3n2)c1,-35.3%,,-61.1%,"39.8 µM [falling, single point]"
C=C1C(=O)OC2C[C@@]3(C)CCCC(C)C3=CC12 (some centres not stated),30.5%,,-24.4%,"39.8 µM [rising, single point]"
COc1ccccc1-c1nc(NCc2cccnc2)c2ccccc2n1,11.9%,"0.282 µM [rising, partial curve]",13.9%,
CC(C)NC[C@@H](O)COc1ccccc1-n1cccc1,23%,"22.4 µM [rising, partial curve, poor fit]",30.9%,
COc1cccc(Nc2ncc3nc(CCc4ccccc4)c(=O)n(Cc4cccs4)c3n2)c1,38.1%,,29.2%,"12.6 µM [rising, partial curve]"
O=c1c(-c2ccc(Cl)cc2)nc2cnc(Oc3ccccc3)nc2n1C1CC1,6.18%,"0.0794 µM [rising, full curve]",0.832%,
O=C(c1cccc(F)c1)N1CCC2(CC1)CN(c1ccccc1)C2,9.49%,"1 µM [rising, full curve, poor fit]",15.4%,
